{"source": "the supplement of paper PMC3334620", "note": "Whole data set: some 33,000 sequences, median “E-score (-0.5 to 0.5)” near -0.04, cut for the highest 2% near 0.36. This is one part of the list."}
{"biological_target": "T1, Hmlalpha2 (UniProt P0CY09)", "T1 sequence": "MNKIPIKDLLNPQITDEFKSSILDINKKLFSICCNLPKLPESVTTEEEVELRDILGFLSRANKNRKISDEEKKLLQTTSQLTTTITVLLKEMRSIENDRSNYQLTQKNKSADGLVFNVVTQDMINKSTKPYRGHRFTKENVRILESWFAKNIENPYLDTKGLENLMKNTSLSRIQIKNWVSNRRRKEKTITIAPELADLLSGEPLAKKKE", "test": "PBM E-score (8-mer binding enrichment) (E-score (-0.5 to 0.5)); higher = stronger / more preferred TF binding; most listed sequences are background and not binding sites", "conditions": "protein concentration: 200 nM; construct: GST-full length", "outline": "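The E-score, a modified Wilcoxon-Mann-Whitney statistic, was computed by the Universal PBM Analysis Suite for every ungapped eight-base word pooled with its reverse complement. Scans behind it were normalised with masliner after bound GST-tagged yeast transcription factors were detected with fluorescent anti-GST. The proteins, at about 100-200 nM, had been applied to universal all-10-mer Agilent arrays made double-stranded by primer extension.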"}
{"sequence": "GAGACCCC", "PBM E-score": -0.227}
{"sequence": "GGACAGCA", "PBM E-score": -0.114}
{"sequence": "CTTTTGCC", "PBM E-score": -0.164}
{"sequence": "AGGCAAGC", "PBM E-score": -0.124}
{"sequence": "ATTTTTTC", "PBM E-score": 0.0391}
{"sequence": "ATATACTG", "PBM E-score": 0.0658}
{"sequence": "CCTGGTCG", "PBM E-score": -0.104}
{"sequence": "CCAAGTAG", "PBM E-score": -0.0346}
{"sequence": "CGTCCCTA", "PBM E-score": -0.0903}
{"sequence": "CTGGCTGC", "PBM E-score": -0.289}
{"sequence": "CATGATAC", "PBM E-score": 0.225}
{"sequence": "CGAGATTC", "PBM E-score": -0.0746}
{"sequence": "GATAAAAA", "PBM E-score": 0.188}
{"sequence": "CCCGTCGA", "PBM E-score": -0.0973}
{"sequence": "ACTATGGA", "PBM E-score": -0.23}
{"sequence": "AAAGTGTC", "PBM E-score": -0.123}
{"sequence": "AGGGGGGG", "PBM E-score": -0.414}
{"sequence": "AGACTTTG", "PBM E-score": 0.0158}
{"sequence": "ACTGCTAG", "PBM E-score": -0.119}
{"sequence": "CCAAGGAA", "PBM E-score": -0.283}
{"sequence": "GATCAGTA", "PBM E-score": 0.182}
{"sequence": "AATTTTGA", "PBM E-score": 0.215}
{"sequence": "ACGCCGGA", "PBM E-score": -0.0852}
{"sequence": "ACGGAATA", "PBM E-score": -0.0004}
{"sequence": "CCCGTCGC", "PBM E-score": -0.136}
{"sequence": "AAACACCC", "PBM E-score": 0.0451}
{"sequence": "ACGAAGAA", "PBM E-score": 0.238}
{"sequence": "AGCCCGTA", "PBM E-score": -0.122}
{"sequence": "ATGAGAGG", "PBM E-score": -0.313}
{"sequence": "ATTCACAG", "PBM E-score": 0.0944}
{"sequence": "AGAGCTTG", "PBM E-score": 0.0618}
{"sequence": "GTACGATA", "PBM E-score": 0.0013}
{"sequence": "GCCACTCC", "PBM E-score": -0.36}
{"sequence": "AACGTTTA", "PBM E-score": 0.153}
{"sequence": "CGTCATAA", "PBM E-score": 0.05}
{"sequence": "AAACATGT", "PBM E-score": 0.445}
{"sequence": "CCAACTGA", "PBM E-score": 0.0614}
{"sequence": "AAATCCAC", "PBM E-score": 0.0936}
{"sequence": "GTTGCACA", "PBM E-score": 0.0871}
{"sequence": "CAAAATTA", "PBM E-score": 0.192}
{"sequence": "CCCCAAGG", "PBM E-score": -0.344}
{"sequence": "CTGCTTCA", "PBM E-score": -0.187}
{"sequence": "ATCCTTGA", "PBM E-score": -0.211}
{"sequence": "CGAGATGC", "PBM E-score": 0.0153}
{"sequence": "ACCCTCAA", "PBM E-score": -0.0829}
{"sequence": "GGGACCCA", "PBM E-score": -0.31}
{"sequence": "ATATCAGG", "PBM E-score": 0.00656}
{"sequence": "AATTTCCG", "PBM E-score": -0.101}
{"sequence": "ATTTCAAA", "PBM E-score": 0.0279}
{"sequence": "AATAGCTG", "PBM E-score": 0.0578}
{"sequence": "CACGCGCA", "PBM E-score": 0.0754}
{"sequence": "CCTCCGCC", "PBM E-score": -0.261}
{"sequence": "GGTGGGAA", "PBM E-score": -0.191}
{"sequence": "CTATAGTA", "PBM E-score": 0.0306}
{"sequence": "AGTAGGCG", "PBM E-score": -0.102}
{"sequence": "CAACTCGA", "PBM E-score": 0.117}
{"sequence": "ACGACTGA", "PBM E-score": -0.125}
{"sequence": "TACTGTAA", "PBM E-score": 0.137}
{"sequence": "CGCCATGA", "PBM E-score": -0.0864}
{"sequence": "ATTGTCTC", "PBM E-score": -0.0878}
{"sequence": "TGAAACCA", "PBM E-score": -0.0558}
{"sequence": "AGCCTTAT", "PBM E-score": -0.168}
{"sequence": "GACGGACA", "PBM E-score": -0.108}
{"sequence": "GGGATCAA", "PBM E-score": -0.0102}
{"sequence": "CGGTGGAG", "PBM E-score": -0.362}
{"sequence": "CTCAAGCC", "PBM E-score": -0.201}
{"sequence": "CGGCCGAA", "PBM E-score": -0.132}
{"sequence": "GAGAGAGC", "PBM E-score": -0.232}
{"sequence": "CTATCCAG", "PBM E-score": -0.15}
{"sequence": "AGTAGCTA", "PBM E-score": 0.0477}
{"sequence": "GAATGCGA", "PBM E-score": -0.108}
{"sequence": "AGCATACA", "PBM E-score": 0.213}
{"sequence": "GGTAGCAC", "PBM E-score": -0.229}
{"sequence": "GTTTCGGA", "PBM E-score": -0.0145}
{"sequence": "AAGTAATT", "PBM E-score": 0.256}
{"sequence": "AGGCCGTG", "PBM E-score": 0.0258}
{"sequence": "ATTATTTC", "PBM E-score": 0.0932}
{"sequence": "CCTCCCAG", "PBM E-score": -0.252}
{"sequence": "CACAACGC", "PBM E-score": 0.19}
{"sequence": "AATTGCAA", "PBM E-score": 0.0289}
{"sequence": "CCCAGCGC", "PBM E-score": -0.138}
{"sequence": "CATGCGCC", "PBM E-score": -0.0099}
{"sequence": "AACAGGTT", "PBM E-score": 0.11}
{"sequence": "CAATCAGC", "PBM E-score": -0.132}
{"sequence": "AGTTCATG", "PBM E-score": 0.109}
{"sequence": "ATGACGTC", "PBM E-score": -0.0603}
